# From paper PMC4242493
# Some of the results follow. The list includes weakly bound sequences.
# Target: MaxL homodimer (UniProt P61244)
# Assay: universal protein-binding microarray (PBM)
# Settings: PBS-based mixture, 10 nM His-tagged protein dimer, 2% milk, 200 ng/uL BSA, 50 ng/uL salmon testes DNA, 0.02% TX-100; detection with Alexa 488 anti-His …; high values mean tight binding; most listed sequences are background and not binding sites; double strand, one strand shown
# Sequence of UniProt P61244 (P61244 whole entry): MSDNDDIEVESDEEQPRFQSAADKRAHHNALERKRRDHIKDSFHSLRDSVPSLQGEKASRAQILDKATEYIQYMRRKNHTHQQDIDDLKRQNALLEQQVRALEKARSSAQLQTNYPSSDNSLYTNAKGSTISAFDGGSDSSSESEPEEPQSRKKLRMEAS
row,Sequence,binding signal (normalized occupancy)
1,ACGACCTA,0.0691
2,GGCTTATA,0.0778
3,CCTACGAA,0.0718
4,TACGCTAA,0.0741
5,AGACCTAT,0.0743
6,ATAGTACA,0.0758
7,CGTGACCC,0.0843
8,GCAAATGA,0.0723
9,CGATAGAG,0.0768
10,TACAATCA,0.0812
11,CGTATACA,0.0842
12,AATTTCGG,0.0697
13,CGAACAAG,0.0691
14,CGAAGAGC,0.0649
15,CCTGACAC,0.078
16,ACGCAGGA,0.0789
17,ATTCGGCG,0.0711
18,CATGAAAG,0.0828
19,AATTTCCC,0.0764
20,GACGGCGC,0.0703
21,CGACCAAA,0.0712
22,AACATTCA,0.0761
23,CGACGTGC,0.083
24,CCGAATAC,0.0774
25,CGTGACTA,0.0874

row,Sequence,binding signal (normalized occupancy)
1,AACCGATT,0.0695
2,CAGGGCGA,0.0755
3,AATCACCC,0.0785
4,ATTCGGTC,0.0761
5,GACAACAC,0.0755
6,CATTCTAC,0.0837
7,CGGCTCCC,0.0671
8,AACCCGTT,0.0707
9,GCGAGATA,0.077
10,TCCATGCA,0.0861
11,GTAACGAC,0.0703
12,AAAATATC,0.0749
13,AATCAAAT,0.0727
14,CATGTCAA,0.082
15,AACGGACA,0.0769
16,CTACCCGA,0.0741
17,ACACTTGC,0.0791
18,CTCATTGA,0.0753
19,ATAAGCTC,0.0761
20,CTATTGTA,0.0774
21,AGAATGAT,0.0794
22,AAGACATG,0.0912
23,GTTACCGA,0.0729
24,GAACGCCC,0.0688
25,CAGAGTAG,0.0757

row,Sequence,binding signal (normalized occupancy)
1,GCACCCGA,0.0703
2,CACTTTTC,0.0739
3,GTGGGCTA,0.0797
4,CCATGAGC,0.0818
5,CTGGGCCA,0.0738
6,AGTGTAAC,0.0735
7,ATATGAAC,0.0832
8,CCGGTTTA,0.0706
9,ACTGGTAT,0.0789
10,GCTTAAGC,0.0692
11,GGCGGCTA,0.0675
12,GTGAACTA,0.0787
13,ATGCCGCC,0.0781
14,CTGTACAA,0.0803
15,CGATCTCA,0.0761
16,ATTACGCC,0.0746
17,TAGCGAAA,0.0727
18,CTGAGGTC,0.0719
19,CCGCCGCA,0.0717
20,CCCTTTTC,0.072
21,AGCTCAAA,0.0648
22,ACCTGGCA,0.0804
23,CCGGCCCC,0.0685
24,AAGTCATG,0.0872
25,GCCCAGAC,0.0742

row,Sequence,binding signal (normalized occupancy)
1,ACTGTTGA,0.0804
2,GAGTGAAA,0.0757
3,CATCATAA,0.0773
4,CAAGATTC,0.0813
5,CATACGGG,0.0812
6,TGAATTCA,0.0793
7,AATAACCT,0.0832
8,ATGTACCC,0.0868
9,CTTGCATA,0.0777
10,GGCGGTTA,0.0716
11,AGACGCCA,0.0714
12,GTAGCCAA,0.0754
13,TGCCCGAA,0.0729
14,CCGCATAA,0.0821
15,AGATTTAA,0.0716
16,AGCGAGGC,0.0726
17,CGCTGATC,0.0724
18,AGGTCCAT,0.0756
19,CCGCATCG,0.0662
20,CTAGTGAA,0.068
21,CCCCGCAC,0.0833
22,ACTAGGCT,0.0695
23,GTCTCCGA,0.0689
24,CCCCCGGC,0.0701
25,GTAAGAAC,0.0735

row,Sequence,binding signal (normalized occupancy)
1,CCCGCAGG,0.0702
2,ATCCCCAT,0.088
3,AGTTGCAG,0.0758
4,CGACCCGA,0.0692
5,CAAGAGCA,0.076
6,GCTCCCAC,0.075
7,AAAGAGCC,0.0704
8,AAGAAATT,0.068
9,AATCCGGT,0.0698
10,CATTTGCA,0.0841
11,ACTGCGTG,0.0884
12,AAGGGAGA,0.0736
13,CGTCTGAC,0.0727
14,CCATCGGA,0.0686
15,AGTTTAAG,0.0693
16,GGCGACTA,0.071
17,CATTGAGC,0.0699
18,AATCGAGC,0.0727
19,AGATCTGG,0.0786
20,ACCGGCCG,0.065
21,ATCGACAG,0.0749
22,AGGGAACG,0.0845
23,GCCGCAGA,0.0731
24,ATTCCGGC,0.0696
25,ATCCTACC,0.0757

row,Sequence,binding signal (normalized occupancy)
1,GTAGACAC,0.0787
2,GCTCGAAA,0.0672
3,GACAGTAC,0.0777
4,AGCCCACT,0.0727
5,CCACGCTC,0.0965
6,ACTTGTTA,0.075
7,TATGTACA,0.0862
8,AAGACAAT,0.0793
9,AGGAAATA,0.0789
10,AGGAATGA,0.0735
11,ACAAGAAG,0.0783
12,AGTACACA,0.0858
13,CCCTGAGA,0.0713
14,AACGCGTC,0.0723
15,GGTAGCAC,0.0806
16,AGCCCCTA,0.0739
17,GCTATGCC,0.0712
18,AACTGATG,0.0749
19,GCTCGAAC,0.0717
20,ACTACGCA,0.0759
21,CGTCCTAA,0.073
22,GCGGAACC,0.0647
23,AGCGCTCG,0.0681
24,AAGACCCC,0.0752
25,ACTCAATG,0.0859

row,Sequence,binding signal (normalized occupancy)
1,ACTCTATA,0.0759
2,GCAATCGC,0.0715
3,GTCAAGTA,0.0747
4,CAATCAAA,0.075
5,ATAACCGC,0.0792
6,GAGTTGCA,0.0724
7,CGCGACCA,0.075
8,CGTTACAC,0.0819
9,AACTCTAA,0.0725
10,ATTGGCTG,0.0741
11,AGCCTCAT,0.0827
12,CAAACGTA,0.0729
13,ACTCAAAG,0.0726
14,ATAGTCCC,0.0796
15,CACAACGG,0.0717
16,GCCTATCC,0.0724
17,GAAGTTAA,0.0758
18,GATGTCAA,0.081
19,CCCTCTTC,0.0755
20,GATCTAAA,0.0756
21,CTCGTATC,0.0763
22,ATTTCTCG,0.0768
23,CAACGGTC,0.0687
24,GGAGGACC,0.0705
25,AAAGTCTC,0.0789

row,Sequence,binding signal (normalized occupancy)
1,GAAACTCA,0.0703
2,AAAAATGG,0.078
3,CGATTACG,0.08
4,TCATATGA,0.0914
5,AGGGCCGG,0.0676
6,CGGAGCGC,0.0673
7,GTCTTAAA,0.074
8,ACAATACA,0.0795
9,GAATCGCC,0.0695
10,ACCGGTCA,0.0718
11,CTGATTCC,0.0772
12,ACTTTGAC,0.0739
13,AACGTTAC,0.0772
14,CAGGAATA,0.078
15,ACCTTTCC,0.0757
16,CCACATCC,0.0817
17,GATGCTGA,0.0746
18,CTCCTAAA,0.07
19,CCGATTCA,0.0784
20,AAACGGGG,0.0729
21,AAACGCAT,0.0815
22,GCGTAGAC,0.0676
23,AAACTGTT,0.0708
24,GACAAGTC,0.0723
25,CCTAATCC,0.0828

row,Sequence,binding signal (normalized occupancy)
1,ACGCCGCC,0.074
2,GAGGAGCC,0.0696
3,GAAACGAA,0.0769
4,CAGGTAGC,0.0737
5,AGGAGTTA,0.0738
6,AGCATCGC,0.07
7,ACGTCAGA,0.0778
8,GTCGACTA,0.0792
9,ACGAGACA,0.0856
10,ATATTATA,0.0902
11,ATATAGCG,0.084
12,GCTGGCGA,0.0689
13,CGGGGGTA,0.087
14,CCACTATA,0.0803
15,CACTGGAA,0.071
16,ACTACTGG,0.0746
17,TGAGAGCA,0.0753
18,ACCTCGCG,0.0814
19,CACCCTTC,0.0755
20,TAAACCCA,0.0765
21,CTAAGGAA,0.0741
22,GTCCTTCA,0.078
23,ATAAGCAA,0.0779
24,TAGGCGAA,0.0744
25,CCCACACA,0.0838

row,Sequence,binding signal (normalized occupancy)
1,ACGTATGA,0.0837
2,AATGGAGA,0.0798
3,CAAAGATC,0.0721
4,CACCGCAA,0.0705
5,GAACCACA,0.0787
6,ACAGAGCC,0.0731
7,GGTGTGAC,0.0842
8,GAGGTGTA,0.0793
9,GCGCGGCC,0.073
10,GTTTTCCA,0.0754
11,AGGCAACG,0.0725
12,CCGCAAGC,0.0656
13,CCATCTGA,0.0849
14,TCCTGCCA,0.0738
15,ACTGCCTA,0.0746
16,ACCGTGCT,0.0773
17,AATCCTAT,0.0766
18,AGGCAGAA,0.071
19,CGCGGGCC,0.0655
20,CTGATTCA,0.0736
21,CCGGGCCC,0.0641
22,GATCGGGA,0.0725
23,ATTTTGTG,0.0771
24,AATTCCCT,0.0737
25,GGTCGGCA,0.0675

row,Sequence,binding signal (normalized occupancy)
1,CAGGAACC,0.0698
2,ATCAGGTA,0.0795
3,CAACAGTA,0.0766
4,AACGTGGG,0.114
5,ACATCTCT,0.0777
6,GGAAGGCA,0.0712
7,GGAATGTA,0.0773
8,CGGGCGAA,0.0693
9,CACTGCGC,0.0765
10,CATCGGCG,0.0726
11,AAGAGTGA,0.0797
12,ATCGTACC,0.0757
13,AAATTAGG,0.0738
14,AACGTAAC,0.0797
15,CACGAGGG,0.134
16,ATGTGCTG,0.0914
17,CCCCGTGA,0.0848
18,GGGACCAC,0.078
19,AGTTGTTG,0.0694
20,ATAACGTG,0.113
21,ATTATATG,0.0821
22,AACGAACA,0.0776
23,AATGAATG,0.0822
24,TACGTGCA,0.0875
25,ATACCAAA,0.0737

row,Sequence,binding signal (normalized occupancy)
1,TGCTAACA,0.0761
2,CTTCGCCA,0.069
3,TACGGCCA,0.0676
4,ACAGACAG,0.0721
5,CAAATACC,0.0711
6,ATTATAAG,0.0845
7,CAGGTTAA,0.0776
8,AAGTCCAT,0.0723
9,CCCAACTC,0.0726
10,CCTCTACG,0.0749
11,GCGCATAC,0.081
12,AGACAAAA,0.077
13,TCCCAGAA,0.0707
14,ACATAGCC,0.0763
15,CACCCAAA,0.0732
16,CTATATAA,0.0834
17,ATGAATGG,0.0826
18,ATGATGTG,0.088
19,GAACCATC,0.0758
20,TCTGAAGA,0.0681
21,CGTTTCCC,0.0715
22,GTCGTAGA,0.0755
23,GCTTCTCC,0.0738
24,GGTATCAC,0.0792
25,CCGTGGCC,0.0738

row,Sequence,binding signal (normalized occupancy)
1,CCCGTTAC,0.0754
2,AGCTCCAA,0.0722
3,AGGCCTCG,0.071
4,CAAGCGGA,0.0699
5,AAGCGCGG,0.0752
6,AATGTTTC,0.0727
7,GAATCTGA,0.0779
8,CGTCCGGC,0.0663
9,AAATATGG,0.088
10,AAGCAATG,0.0737
11,GATTGTTA,0.078
12,CCGCGTTC,0.0716
13,GTTTAGTA,0.0763
14,GAGTGAGC,0.0678
15,CCAGAACA,0.0795
16,GCCCAGCC,0.0665
17,GGACCACC,0.0805
18,GACGCGCC,0.0717
19,CATCGATA,0.0857
20,TCGGCCAA,0.0676
21,ACGAGGCT,0.0805
22,CCTTTACG,0.0763
23,GTCATTTA,0.0791
24,GAATAGAC,0.0771
25,CGTAATAA,0.0849

row,Sequence,binding signal (normalized occupancy)
1,AGCCGCCG,0.0691
2,ACGTACTA,0.0792
3,CTCTGGAC,0.0728
4,GCTCAGCC,0.0668
5,AAAAAAAG,0.0729
6,AATATGAC,0.0855
7,ATCATTCG,0.0804
8,CCATTCAA,0.0785
9,ACAATACG,0.0788
10,AAGCCGTG,0.0718
11,CCTAGGAG,0.07
12,AATACTTC,0.0703
13,GCTGGGAA,0.0701
14,AGAGGGCC,0.0698
15,CAATGAAA,0.0789
16,CTAATCGC,0.0743
17,AAGAACTG,0.0705
18,ACAGAATC,0.0764
19,ACGTCATG,0.0885
